Sequences with one replicate were seen in a single cluster, so their values are uncertain.
What follows are sequences tested on ATP (assay: switch fluorescence ratio, 500 uM ATP over buffer (Cy3 cluster intensity, sum of 5 cycles each) (fold (ratio)); higher = stronger signal-on switching upon ATP binding; sequences stand for … in TCGTCGGCAGCGTCAGATGTGTATAAGAGACAGTTTTTTTTTTTTTTTTTTTTTTTTT…TC). Settings: aptamer strand: ATP DNA aptamer (quencher-CACCTGGGGGAGTATTGCGGAGGAAGG + anchor), 100 nM annealed; ATP concentration: 500 uM; one replicate.
In short: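 The fluorescence ratio divides summed target-cycle Cy3 intensity by summed buffer-cycle Cy3 intensity for each cluster and is averaged per switch-domain sequence. Cy3-labelled switching-strand clusters on a modified Illumina MiSeq flow-cell were annealed to 100 nM quencher-labelled ATP aptamer, then imaged in selection buffer and again after 15 min with 500 uM ATP at 22 °C. Five such cycles were run, with NaOH stripping and re-annealing between them, and clusters outside 100-1000 RFU were excluded.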
AAAATAAATA gave a switch fluorescence ratio of 1.21. Sequence AATTGTGGTG has a switch fluorescence ratio of 0.997. ACTACGGGGA was tested, and the switch fluorescence ratio was 1.05. TAGCGATTCA was tested, and the switch fluorescence ratio was 0.978. TCGATGTGCT gave a switch fluorescence ratio of 1.04. Sequence TAAATGAATC has a switch fluorescence ratio of 1.01. With TGTTATTTGC the switch fluorescence ratio was 0.969. Sequence TGTCAGGGAG has a switch fluorescence ratio of 0.956. For AGGGCAACTA, the switch fluorescence ratio was 1. AGTTATGGGT showed a switch fluorescence ratio of 1.02. ACGTGGAATC gave a switch fluorescence ratio of 1.07. In the case of AGGGGGAGAC, the switch fluorescence ratio is reported as 1.42. TTCTTGAACG gave a switch fluorescence ratio of 1.07. Sequence ACGTGGCATT has a switch fluorescence ratio of 1.05. GAGAGCGCAT showed a switch fluorescence ratio of 0.981. With CTGAATTTTA the switch fluorescence ratio was 1. Sequence TCGTTAAGGG has a switch fluorescence ratio of 1.12. TTAGTATTTG showed a switch fluorescence ratio of 1.02. Sequence CTTTTCGCCT has a switch fluorescence ratio of 0.998. In the case of AGATAGCAGA, the switch fluorescence ratio is reported as 0.94. Sequence GGAGCTTCGG has a switch fluorescence ratio of 0.96. ATGCACTGTG showed a switch fluorescence ratio of 1. TACGGTGGAG was tested, and the switch fluorescence ratio was 1.01. TAGGAGTGGC gave a switch fluorescence ratio of 1.03. In the case of GATTTCAGAG, the switch fluorescence ratio is reported as 0.991. Work on TGAGCTATT yielded a switch fluorescence ratio of 0.962. ACTCCTTGGC was tested, and the switch fluorescence ratio was 1.16. For CGCGGCTATA, the switch fluorescence ratio was 1.31. In the case of ATGTACCAGG, the switch fluorescence ratio is reported as 1.41. For CGTAGTTCCT, the switch fluorescence ratio was 0.954. Work on AAGTATTGAA yielded a switch fluorescence ratio of 0.957. With GGGCATAAAT the switch fluorescence ratio was 1. In the case of ATGTCACATC, the switch fluorescence ratio is reported as 0.995. Work on GTCGTTAACT yielded a switch fluorescence ratio of 1.03. With ATCTGACAAG the switch fluorescence ratio was 1.04. Sequence TCAGTGGAGT has a switch fluorescence ratio of 0.979. CTGGTTCATC showed a switch fluorescence ratio of 0.984. Sequence CTGTTTTGAG has a switch fluorescence ratio of 1. CCATTTGGC showed a switch fluorescence ratio of 0.947. In the case of GCATGTGTCC, the switch fluorescence ratio is reported as 1.02. In the case of AAGTCCAGGC, the switch fluorescence ratio is reported as 1.18. With ACCGTGTTCG the switch fluorescence ratio was 1.06. CTACTAGTAC showed a switch fluorescence ratio of 1.29. TTGCAGCTCG was tested, and the switch fluorescence ratio was 0.977. Sequence TAGTTCGCC has a switch fluorescence ratio of 0.941. TGGCCTGAG gave a switch fluorescence ratio of 1.08. Work on CCAGTATCTT yielded a switch fluorescence ratio of 0.974. With TGAAGGTTAT the switch fluorescence ratio was 0.973. TCAATCGACG was tested, and the switch fluorescence ratio was 1. AGTTCGTTCC was tested, and the switch fluorescence ratio was 1.31. For TAAAAGGCG, the switch fluorescence ratio was 1.05. Sequence CGTGACAGCC has a switch fluorescence ratio of 1.06. ACCGACCCGG showed a switch fluorescence ratio of 1.04. For ACATAGTATC, the switch fluorescence ratio was 1.01. For GCAGCGTAAG, the switch fluorescence ratio was 1.01. Sequence CTTAGGGCC has a switch fluorescence ratio of 0.975. For TGCACTGATA, the switch fluorescence ratio was 1.01. Work on CAGTATCCA yielded a switch fluorescence ratio of 0.974. In the case of CATAGCCCAC, the switch fluorescence ratio is reported as 1.18. TGGAGTTGCC gave a switch fluorescence ratio of 0.972. AACCGTTGGA gave a switch fluorescence ratio of 1. For CCCCAACGC, the switch fluorescence ratio was 1.75. Work on AGCCAGTTTG yielded a switch fluorescence ratio of 0.964. In the case of TATCCGATTC, the switch fluorescence ratio is reported as 1.02. AATGTCAAAG was tested, and the switch fluorescence ratio was 0.957. Work on GTATCTAT yielded a switch fluorescence ratio of 1.02. In the case of AACCAACACG, the switch fluorescence ratio is reported as 1.15. In the case of CTATGAGTG, the switch fluorescence ratio is reported as 0.961. AGATTTGTAC gave a switch fluorescence ratio of 1.06. GGGAGTTCAC showed a switch fluorescence ratio of 0.933. AATGCAGCTG showed a switch fluorescence ratio of 1.02. TTGCGCGGCG gave a switch fluorescence ratio of 0.997. ATTAACCTA showed a switch fluorescence ratio of 1.04. Sequence GCCTAATATA has a switch fluorescence ratio of 0.991. Work on TGTCGAATT yielded a switch fluorescence ratio of 0.989. ACTTGTACAG was tested, and the switch fluorescence ratio was 1.05. In the case of TGAAATGCCT, the switch fluorescence ratio is reported as 1.03. With TATGCTGGTA the switch fluorescence ratio was 0.964. Work on AGCCGGGCTA yielded a switch fluorescence ratio of 1. TAGGGAGGG was tested, and the switch fluorescence ratio was 0.982. For TAACAATTGC, the switch fluorescence ratio was 0.996. CCGGCGATTG was tested, and the switch fluorescence ratio was 1.05. CACATAGGTA showed a switch fluorescence ratio of 1.01. Sequence TTGCTGAATG has a switch fluorescence ratio of 1.02. Work on GCAGAAACTA yielded a switch fluorescence ratio of 1.2. Work on CTGGGGTTCT yielded a switch fluorescence ratio of 1.03. In the case of ACACGGTGG, the switch fluorescence ratio is reported as 1. AGGTCTGCG showed a switch fluorescence ratio of 1.01. TACACTCGGA showed a switch fluorescence ratio of 1.02. CTGGACGACG gave a switch fluorescence ratio of 1.01. GAAAATTAGC gave a switch fluorescence ratio of 0.984. For TCTGAGGCGG, the switch fluorescence ratio was 1.09. Sequence CTAGTATTTC has a switch fluorescence ratio of 0.947. In the case of TCGGTG, the switch fluorescence ratio is reported as 0.986. With CCTAGAAGGA the switch fluorescence ratio was 1. TTTAAGTTAT was tested, and the switch fluorescence ratio was 1.01. TTAGGGGATA gave a switch fluorescence ratio of 1.04. AGGCAGCGGA gave a switch fluorescence ratio of 1.01. CCCTATAGTT was tested, and the switch fluorescence ratio was 1.04. Sequence AGTCAGGAGA has a switch fluorescence ratio of 1.01. With AACCCTGGCG the switch fluorescence ratio was 1.02. In the case of TCGTGAGGCA, the switch fluorescence ratio is reported as 1.03. Work on AATTACTTGG yielded a switch fluorescence ratio of 1.03. Work on AAGTACTCTC yielded a switch fluorescence ratio of 1.3. CGTAGATATG was tested, and the switch fluorescence ratio was 0.998. ATTACCGGAC showed a switch fluorescence ratio of 1.76. For CGACCATTTT, the switch fluorescence ratio was 1.03. TCTATTTATA was tested, and the switch fluorescence ratio was 1.01. Work on GAATGTAAGT yielded a switch fluorescence ratio of 0.996. Work on ACCTAGGGGT yielded a switch fluorescence ratio of 1.01. ACTAGTGATA was tested, and the switch fluorescence ratio was 1.03. With TTAAGATCG the switch fluorescence ratio was 1.04. In the case of AAGGGATGGG, the switch fluorescence ratio is reported as 0.988. For CTACCCTGCG, the switch fluorescence ratio was 1.03. With GGCGCGTGGG the switch fluorescence ratio was 1.06. In the case of GGGAGTCTG, the switch fluorescence ratio is reported as 0.995. In the case of TCTATCGGTC, the switch fluorescence ratio is reported as 1.04. In the case of CCGTGATCA, the switch fluorescence ratio is reported as 1.1. For TATCTCGGCT, the switch fluorescence ratio was 1. For CGCATGTTAT, the switch fluorescence ratio was 1.13. With AAAAGTAAGC the switch fluorescence ratio was 1.14. TTGGTTCATC was tested, and the switch fluorescence ratio was 1.01. With AGCTCATTTA the switch fluorescence ratio was 1.02. TGACATGCAT gave a switch fluorescence ratio of 0.983. In the case of TGCTAATTC, the switch fluorescence ratio is reported as 2. Sequence AAGTAGCTT has a switch fluorescence ratio of 1.01. TATAGTGCCT showed a switch fluorescence ratio of 1.07. GTGTACTGAT gave a switch fluorescence ratio of 0.993. In the case of TCTATCCT, the switch fluorescence ratio is reported as 1.07. Work on ATCGAAGTG yielded a switch fluorescence ratio of 1.02. Work on TGAGAAGAT yielded a switch fluorescence ratio of 1.02. Work on CACGAAACG yielded a switch fluorescence ratio of 1.14. In the case of ATATAGTCG, the switch fluorescence ratio is reported as 0.988. For AGTCATAGTA, the switch fluorescence ratio was 1.02. GTATACCTGT gave a switch fluorescence ratio of 1.03. In the case of CGTTCCCAGC, the switch fluorescence ratio is reported as 1.3. With GGTGTTGATA the switch fluorescence ratio was 0.987. CACAGCTCCT showed a switch fluorescence ratio of 0.973. With CTGTGTGCTG the switch fluorescence ratio was 1.06. In the case of TTACAGGTTG, the switch fluorescence ratio is reported as 1.11. In the case of AGATTGAACC, the switch fluorescence ratio is reported as 1.05. AACGGCATGA gave a switch fluorescence ratio of 1.04. For GTGGCTTTTG, the switch fluorescence ratio was 0.98. Sequence TTCTTGCAGA has a switch fluorescence ratio of 1.12. Sequence GTGTTCTTT has a switch fluorescence ratio of 0.948. TTGAGACTAA gave a switch fluorescence ratio of 1.01. With GTTTCATGGT the switch fluorescence ratio was 0.948. Sequence TACCAGACGT has a switch fluorescence ratio of 1.35. GTCCTTCAAT gave a switch fluorescence ratio of 1.01. For CGAGGCACGA, the switch fluorescence ratio was 1.15. ACCACATTTT gave a switch fluorescence ratio of 1.05. CTAGGGTGCA gave a switch fluorescence ratio of 0.956. Work on TCGGCTTAC yielded a switch fluorescence ratio of 1.1. In the case of TGCAGAGAAG, the switch fluorescence ratio is reported as 0.98. Sequence TTTGGCCCGA has a switch fluorescence ratio of 1.01. TTGCGGATTG gave a switch fluorescence ratio of 1.04. Sequence ACTGATCCCG has a switch fluorescence ratio of 1.1. ACAAGTGTGA showed a switch fluorescence ratio of 1.
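Also: ATP exposure 15 min at 22 °C before imaging.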
